Measurements: patent publication EP0284180A1, “Prostaglandins E and anti ulcers containing same” (Kabushiki Kaisha Ueno Seiyaku Oyo Kenkyujo, priority 1987, dated 1988)
At least one read-out could not be matched to a standard name with certainty.

System: confinement-stress induced ulcers through immersion in water
Assay: Confinement-stress induced ulcers through immersion in water (hydrorestraint stress ulcer preventing effect)
Type: in vivo, male rats of the Crj : Wistar strain
Conditions: rats, oral, index 0-4
Procedure: As test samples, we used the PGE as obtained in Examples 2 to 52 as described herein, 13,14-dihydro-15-keto-PGE2 (produced by Funakoshi & Co.) being employed as a control reference.
Each group of test animals used consisted of 8 to 10 male rats of the Crj : Wistar strain, weighing 180 to 230 g. Test animals were fasted for 24 hours before the oral administration of the test samples; in the case of development of confinement-stress induced ulcers through immersion in water, 10 minutes after oral administration of the test specimens, the aminals were confined in a stress cage developed by Univ. of Tokyo, then immersed up to the ensiform process of sternum in water at 23°C for 4 hours and sacrificed; in the case of formation of indomethacin-induced ulcers, shortly after the materials were given, animals were given indomethacin orally at a dose of 10 mg/kg and sacrificed after 5 hours.
The stomacks were taken out, followed by fixation with 1 % formalin, and incised along the greater curvature to carry out investigation under an illuminated magnifier for ulceration. The degree and extent of lesion and ulcer were rated based on the ulceration index being classified into the following five numerical categories: • 0: normal, with no lesion detected; • 1: bleeding or erosion of mucosa; • 2: development of less than 5 small ulcers (not greater than 2 mm in diameter); • 3: generation of not less than 5 small ulcers or a large ulcer (not less than 2 mm in diameter); • 4: generation of not less than 2 large ulcers.
On the basis of the criteria that the rats with the ulceration index of not less than "2", the ulcer inhibition rate (EDso) was calculated from ulcer-generation ratio in the control and the ratio of the test specimens.

SMILES | Ulcer index (aver. ± SE) (dosage 0.3 mg/kg) | Ulcer index (aver. ± SE) (dosage 1 mg/kg) | Ulcer index (aver. ± SE) (dosage 3 mg/kg) | further results
CCCCCC(=O)CC[C@H]1[C@H](C)CC(=O)[C@@H]1CC(=O)CCCCC(=O)OC [(38)] | 2.7±0.4 | 1.9±0.2 | 1.0±0.2 | –
CCCCCC(=O)CC[C@H]1[C@H](O)CC(=O)[C@@H]1C/C=C\CCCC(=O)OC(C)C [(5)] | – | 2.2±0.4 | – | Ulcer index (aver. ± SE) (dosage 5 mg/kg): 1.5±0.3
CCCCCC(=O)CC[C@H]1[C@H](O)CC(=O)[C@@H]1C/C=C\CCCC(=O)OCC [(3)] | – | 2.1±0.4 | 1.1±0.3 | Ulcer index (aver. ± SE) (dosage 10 mg/kg): 0.3±0.1
CCCCCC(=O)CC[C@H]1[C@H](O)CC(=O)[C@@H]1C/C=C\CCCC(=O)O [(1)] | – | – | – | Ulcer index (aver. ± SE) (dosage 20 mg/kg): 2.5±0.3
CCCCCC(=O)CC[C@H]1[C@H](O)CC(=O)[C@@H]1C/C=C\CCCC(=O)OC [(2)] | – | – | – | Ulcer index (aver. ± SE) (dosage 5 mg/kg): 1.4±0.4; Ulcer index (aver. ± SE) (dosage 15 mg/kg): 0.5±0.3
CCCCCC(=O)CC[C@H]1[C@H](O)CC(=O)[C@@H]1CC(=O)CCCCC(=O)OCCCC [(10)] | – | 2.0±0.4 | 0.9±0.4 | –
CCOC(=O)CCCCC(=O)C[C@H]1C(=O)C[C@@H](O)[C@@H]1CCC(=O)CCCC(C)C [(36)] | 2.4±0.4 | 1.5±0.3 | – | –
CCCCCC(=O)CC[C@H]1[C@H](O)CC(=O)[C@@H]1CC(=O)CCCCC(=O)OC [(8)] | 2.0±0.3 | 1.5±0.5 | – | –
CCCCCC(=O)CC[C@H]1[C@H](O)CC(=O)[C@@H]1CC(=O)CCCCC(=O)OCC (racemic) [(11)] | – | 2.0±0.4 | 1.4±0.2 | Ulcer index (aver. ± SE) (dosage 10 mg/kg): 1.1±0.2
CCCCCC(=O)CC[C@H]1[C@H](O)CC(=O)[C@@H]1CCCCCCC(=O)OCC [(7)] | – | – | 1.9±0.3 | Ulcer index (aver. ± SE) (dosage 10 mg/kg): 1.1±0.2
CCCCCC(=O)CC[C@H]1[C@H](C)CC(=O)[C@@H]1CC(=O)CCCCC(=O)OCC [(39)] | 2.0±0.3 | 1.0±0.2 | 0.7±0.2 | –
CCCCCC(=O)CC[C@H]1[C@H](O)CC(=O)[C@@H]1CCCCCCC(=O)OC [(6)] | – | – | 2.4±0.3 | Ulcer index (aver. ± SE) (dosage 10 mg/kg): 1.4±0.2
CCCCCC(=O)CC[C@H]1[C@H](O)CC(=O)[C@@H]1C/C=C\CCCC(=O)OCCC [(4)] | – | 2.1±0.4 | – | Ulcer index (aver. ± SE) (dosage 5 mg/kg): 1.6±0.3
CCCCCC(=O)CC[C@H]1[C@H](O)CC(=O)[C@@H]1CC(=O)CCCCC(=O)OCC [(9)] | 1.9±0.2 | 1.5±0.3 | – | –
CCCCCCC(=O)CC[C@H]1[C@H](O)CC(=O)[C@@H]1CC(=O)CCCCC(=O)OCC [(37)] | – | 2.7±0.4 | 1.9±0.2 | Ulcer index (aver. ± SE) (dosage 6 mg/kg): 1.0±0.2
